The results in this text go back to patent US20230365662A1.

The labels stand for the following.
B1: KB001 mouse Fab VL T52A (Fab, V domains shown)
VH: EVQLKQSGPGLVAPSQSLSITCTVSGFSLSIYSVHWVRQPPGKGLEWLGMIWGGGSSDYNSALKSRLSISKDNSKSQVFLKMNSLQTDDTAMYYCARNGNFYAMDYWGQGTSVTVSS
VL: QIVLTQSPAIMSASLGERVTMTCTASSSVSSSFLHWYQQKPGSSPQLWIYSASNLASGVPARFSGSGSGTSYSLTISSMEAEDAATYYCHQYHHSPYIYTFGGGTKLEIK
B2: KB001 mouse Fab VL S28F (Fab, V domains shown)
VH: EVQLKQSGPGLVAPSQSLSITCTVSGFSLSIYSVHWVRQPPGKGLEWLGMIWGGGSSDYNSALKSRLSISKDNSKSQVFLKMNSLQTDDTAMYYCARNGNFYAMDYWGQGTSVTVSS
VL: QIVLTQSPAIMSASLGERVTMTCTASSFVSSSFLHWYQQKPGSSPQLWIYSTSNLASGVPARFSGSGSGTSYSLTISSMEAEDAATYYCHQYHHSPYIYTFGGGTKLEIK
B3: KB001 mouse Fab VL S57K (Fab, V domains shown)
VH: EVQLKQSGPGLVAPSQSLSITCTVSGFSLSIYSVHWVRQPPGKGLEWLGMIWGGGSSDYNSALKSRLSISKDNSKSQVFLKMNSLQTDDTAMYYCARNGNFYAMDYWGQGTSVTVSS
VL: QIVLTQSPAIMSASLGERVTMTCTASSSVSSSFLHWYQQKPGSSPQLWIYSTSNLAKGVPARFSGSGSGTSYSLTISSMEAEDAATYYCHQYHHSPYIYTFGGGTKLEIK
B4: KB001 mouse Fab VL S31L (Fab, V domains shown)
VH: EVQLKQSGPGLVAPSQSLSITCTVSGFSLSIYSVHWVRQPPGKGLEWLGMIWGGGSSDYNSALKSRLSISKDNSKSQVFLKMNSLQTDDTAMYYCARNGNFYAMDYWGQGTSVTVSS
VL: QIVLTQSPAIMSASLGERVTMTCTASSSVSLSFLHWYQQKPGSSPQLWIYSTSNLASGVPARFSGSGSGTSYSLTISSMEAEDAATYYCHQYHHSPYIYTFGGGTKLEIK
B5: parental mouse (KB001) Fab FASEBA, VL variant A56H (Fab, V domains shown)
VH: EVQLKQSGPGLVAPSQSLSITCTVSGFSLSIYSVHWVRQPPGKGLEWLGMIWGGGSSDYNSALKSRLSISKDNSKSQVFLKMNSLQTDDTAMYYCARNGNFYAMDYWGQGTSVTVSS
VL: QIVLTQSPAIMSASLGERVTMTCTASSSVSSSFLHWYQQKPGSSPQLWIYSTSNLHSGVPARFSGSGSGTSYSLTISSMEAEDAATYYCHQYHHSPYIYTFGGGTKLEIK
B6: parental mouse (KB001) Fab FASEBA, VL variant S95K (Fab, V domains shown)
VH: EVQLKQSGPGLVAPSQSLSITCTVSGFSLSIYSVHWVRQPPGKGLEWLGMIWGGGSSDYNSALKSRLSISKDNSKSQVFLKMNSLQTDDTAMYYCARNGNFYAMDYWGQGTSVTVSS
VL: QIVLTQSPAIMSASLGERVTMTCTASSSVSSSFLHWYQQKPGSSPQLWIYSTSNLASGVPARFSGSGSGTSYSLTISSMEAEDAATYYCHQYHHKPYIYTFGGGTKLEIK
B7: parental mouse (KB001) Fab FASEBA, VL variant T100F (Fab, V domains shown)
VH: EVQLKQSGPGLVAPSQSLSITCTVSGFSLSIYSVHWVRQPPGKGLEWLGMIWGGGSSDYNSALKSRLSISKDNSKSQVFLKMNSLQTDDTAMYYCARNGNFYAMDYWGQGTSVTVSS
VL: QIVLTQSPAIMSASLGERVTMTCTASSSVSSSFLHWYQQKPGSSPQLWIYSTSNLASGVPARFSGSGSGTSYSLTISSMEAEDAATYYCHQYHHSPYIYFFGGGTKLEIK
B8: parental mouse (KB001) Fab FASEBA, VL variant A56Y (Fab, V domains shown)
VH: EVQLKQSGPGLVAPSQSLSITCTVSGFSLSIYSVHWVRQPPGKGLEWLGMIWGGGSSDYNSALKSRLSISKDNSKSQVFLKMNSLQTDDTAMYYCARNGNFYAMDYWGQGTSVTVSS
VL: QIVLTQSPAIMSASLGERVTMTCTASSSVSSSFLHWYQQKPGSSPQLWIYSTSNLYSGVPARFSGSGSGTSYSLTISSMEAEDAATYYCHQYHHSPYIYTFGGGTKLEIK
B9: KB001 parental mouse Fab VH variant F101Y (Fab, V domains shown)
VH: EVQLKQSGPGLVAPSQSLSITCTVSGFSLSIYSVHWVRQPPGKGLEWLGMIWGGGSSDYNSALKSRLSISKDNSKSQVFLKMNSLQTDDTAMYYCARNGNYYAMDYWGQGTSVTVSS
VL: QIVLTQSPAIMSASLGERVTMTCTASSSVSSSFLHWYQQKPGSSPQLWIYSTSNLASGVPARFSGSGSGTSYSLTISSMEAEDAATYYCHQYHHSPYIYTFGGGTKLEIK
B10: KB001 parental mouse Fab VH variant Y106E (Fab, V domains shown)
VH: EVQLKQSGPGLVAPSQSLSITCTVSGFSLSIYSVHWVRQPPGKGLEWLGMIWGGGSSDYNSALKSRLSISKDNSKSQVFLKMNSLQTDDTAMYYCARNGNFYAMDEWGQGTSVTVSS
VL: QIVLTQSPAIMSASLGERVTMTCTASSSVSSSFLHWYQQKPGSSPQLWIYSTSNLASGVPARFSGSGSGTSYSLTISSMEAEDAATYYCHQYHHSPYIYTFGGGTKLEIK
B11: KB001 parental mouse Fab VH variant N100D (Fab, V domains shown)
VH: EVQLKQSGPGLVAPSQSLSITCTVSGFSLSIYSVHWVRQPPGKGLEWLGMIWGGGSSDYNSALKSRLSISKDNSKSQVFLKMNSLQTDDTAMYYCARNGDFYAMDYWGQGTSVTVSS
VL: QIVLTQSPAIMSASLGERVTMTCTASSSVSSSFLHWYQQKPGSSPQLWIYSTSNLASGVPARFSGSGSGTSYSLTISSMEAEDAATYYCHQYHHSPYIYTFGGGTKLEIK

Some entries of the source have several records that differ or are many. The list is limited to them. An entry can have further records. Results that share an entry read as repeated measurements on other runs, samples or individuals; a mean can stand among them. Brackets with × stand for listed records that agree.

One assay concerns the target HRgpA-6H (Porphyromonas gingivalis) (UniProt P28784). The assay is described as follows: ELISA, FASEBA Fab on coated HRgpA-6H. (ELISA stands for enzyme-linked immunosorbent assay.)
For B1, the OD450nm was 0.923, 0.848, 0.851, 0.782 [lines of one column]. With B2, the OD450nm is 0.674, 0.721, 0.74, 0.678 [lines of one column] and the Ratio OD(Variant)/OD(WT) was 0.898, 0.961, 0.986, 0.903 [lines of one column]. With B3, the OD450nm was 0.841, 0.84, 0.864, 0.846, 0.879 [lines of one column] and the Ratio OD(Variant)/OD(WT) was 1.03 (2×), 1.06, 1.04, 1.08 [lines of one column]. As to B4, the OD450nm is 0.742, 0.739, 0.745, 0.691 [lines of one column] and the Ratio OD(Variant)/OD(WT) was 0.878, 0.875, 0.882, 0.818 [lines of one column].

For the next assay the target is unchanged. The assay is described as follows: ELISA, Fab FASEBA supernatant on coated HRgpA-6H.
As for B5, the OD450nm is 0.704 OD450nm, 0.699 OD450nm, 0.759 OD450nm, 0.739 OD450nm [lines of one column] and the Ratio OD(Variant)/OD(WT) was 0.863, 0.857, 0.931, 0.906 ratio to WT [lines of one column].

Turning to B6, the OD450nm was 0.841 OD450nm, 0.824 OD450nm, 0.813 OD450nm, 0.79 OD450nm [lines of one column] and the Ratio OD(Variant)/OD(WT) is 0.916, 0.897, 0.885, 0.86 ratio to WT [lines of one column]. Consider B7, for which the OD450nm was 0.494 OD450nm, 0.492 OD450nm, 0.48 OD450nm, 0.517 OD450nm [lines of one column] and the Ratio OD(Variant)/OD(WT) is 0.944, 0.94, 0.917, 0.988 ratio to WT [lines of one column]. As to B8, the OD450nm was 0.673 OD450nm, 0.712 OD450nm, 0.726 OD450nm, 0.696 OD450nm, 0.698 OD450nm [lines of one column] and the Ratio OD(Variant)/OD(WT) is 0.825, 0.873, 0.89, 0.853, 0.856 ratio to WT [lines of one column].

For the next assay the target is unchanged. The assay is described as follows: ELISA, Fab FASEBA supernatant on coated HRgpA-6H (0.0625 ug/ml).
For B9, the OD450nm is 0.69, 0.718, 0.738, 0.713, 0.732 [lines of one column] and the Ratio OD(Variant)/OD(WT) is 0.815, 0.848, 0.871, 0.842, 0.864 [lines of one column]. B10: the OD450nm is 0.687, 0.705, 0.721, 0.686 [lines of one column] and the Ratio OD(Variant)/OD(WT) was 0.893, 0.917, 0.938, 0.892 [lines of one column].

Turning to B11, the OD450nm was 0.82, 0.784, 0.841, 0.842 [lines of one column] and the Ratio OD(Variant)/OD(WT) was 0.968, 0.926, 0.993, 0.994 [lines of one column].
